{"source": "PubChem BioAssay AID488969", "about": "(Vanderbilt High Throughput Screening Facility, 2010)", "note": "Whole data set: some 110,000 compounds, median “z-score” near -0.1, cut for the highest 2% near 2. This is one part of the list. Active and inactive are the calls of the source.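 Rule for the calls: active = z-score in the third read window above 3 or below -3; inactive = the rest.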"}
{"biological_target": "Metabotropic glutamate receptor 8 (Rattus norvegicus) (UniProt P70579)", "sequence (P70579 whole entry, looked up)": "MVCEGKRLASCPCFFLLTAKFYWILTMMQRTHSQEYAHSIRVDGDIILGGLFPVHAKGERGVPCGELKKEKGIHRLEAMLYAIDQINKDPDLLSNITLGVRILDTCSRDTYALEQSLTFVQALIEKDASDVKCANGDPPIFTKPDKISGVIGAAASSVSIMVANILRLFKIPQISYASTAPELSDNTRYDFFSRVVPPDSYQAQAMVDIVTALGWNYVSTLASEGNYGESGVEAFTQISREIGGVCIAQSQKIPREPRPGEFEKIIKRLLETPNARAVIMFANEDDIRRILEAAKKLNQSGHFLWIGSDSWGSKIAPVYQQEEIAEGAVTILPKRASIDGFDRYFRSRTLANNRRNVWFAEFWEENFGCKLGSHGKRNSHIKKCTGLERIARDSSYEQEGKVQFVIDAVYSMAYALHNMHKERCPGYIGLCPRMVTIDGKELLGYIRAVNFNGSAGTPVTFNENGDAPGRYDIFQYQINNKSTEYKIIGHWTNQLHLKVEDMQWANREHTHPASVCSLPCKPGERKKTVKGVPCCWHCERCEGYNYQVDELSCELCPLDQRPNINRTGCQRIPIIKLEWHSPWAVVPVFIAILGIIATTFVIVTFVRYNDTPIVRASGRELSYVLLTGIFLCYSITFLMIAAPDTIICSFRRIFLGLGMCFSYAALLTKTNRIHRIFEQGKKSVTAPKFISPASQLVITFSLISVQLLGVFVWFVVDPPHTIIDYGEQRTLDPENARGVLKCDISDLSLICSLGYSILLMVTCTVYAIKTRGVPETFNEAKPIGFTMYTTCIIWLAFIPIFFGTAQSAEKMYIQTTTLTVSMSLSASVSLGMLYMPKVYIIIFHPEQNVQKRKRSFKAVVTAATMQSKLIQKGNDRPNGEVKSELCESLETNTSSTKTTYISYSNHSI", "assay": "rat mGluR8 modulators via GIRK flux, primary screen, cell-based, thallium flux, HTS (AID 488969)", "details": "HEK293 rat mGluR8, GIRK (G protein-gated inwardly rectifying potassium channel) thallium flux, FluoZin2; at 10 µM; stronger effect = higher value; submaximal glutamate (EC20) added with thallium"}
{"smiles": "CC(C)c1nnc(NC(=O)CSc2ccccc2)s1", "z-score": 0.0199}
{"smiles": "CCc1cc(-c2n[nH]c(=S)n2N)n(C)n1", "z-score": 0.018}
{"smiles": "COc1cc(/C=C(/NC(=O)c2ccccc2)C(=O)Nc2ccccc2)c([N+](=O)[O-])cc1OC", "z-score": -0.0524}
{"smiles": "Cc1ccc(-n2c(=O)c3c4c(sc3n3c(C)nnc23)COC(C(C)C)C4)cc1", "note": "(configuration not stated)", "z-score": -2.03}
{"smiles": "COc1ccc(OC)c(NC(=O)CSc2nc3ccccc3c(=O)n2CCNC(C)=O)c1", "z-score": 0.234}
{"smiles": "COc1ccc(-n2nnc3c(=O)n(C/C=C/c4ccccc4)cnc32)cc1", "z-score": 0.232}
{"smiles": "CCSc1nc2ccccc2n1S(=O)(=O)c1ccccc1", "z-score": 0.00952}
{"smiles": "O=C(Cc1ccc(Cl)cc1)Nc1ccc(N2CCCC2)cc1", "z-score": 0.209}
{"smiles": "Cc1ccccc1OCCC(=O)NCCc1ccc(S(N)(=O)=O)cc1", "z-score": -0.077}
{"smiles": "Cn1c(=O)c2cc(S(=O)(=O)NCCC(=O)Nc3ccc(Cl)cc3)ccc2n(C)c1=O", "z-score": 0.726}
{"smiles": "CNC(=O)CCc1[nH]c2ccccc2c1Sc1ccccc1", "z-score": -0.158}
{"smiles": "COc1ccc(C(=O)NC2CCSC2=O)cc1", "note": "(configuration not stated)", "z-score": -0.412}
{"smiles": "Cc1ccc(S(=O)(=O)N2CCN(C(C(=O)Nc3ccc(F)cc3)c3ccccc3)CC2)cc1", "note": "(configuration not stated)", "z-score": -2.21}
{"smiles": "CC(=O)c1cnc2c(-c3ccccc3)cnn2c1C", "z-score": 0.732}
{"smiles": "CCc1nc(SCC(=O)N2CCCc3ccccc32)c2oc3ccccc3c2n1", "z-score": 0.329}
{"smiles": "O=C(NCC(=O)N1CCCCC1)c1ccc(Cl)cc1Cl", "z-score": -0.0121}
{"smiles": "COc1ccccc1NC(=O)CN(c1ccc([N+](=O)[O-])cc1)S(=O)(=O)c1ccccc1", "z-score": -0.194}
{"smiles": "CCn1c(=O)cc(OCC(=O)NC2CCCCC2)c2ccccc21", "z-score": -0.111}
{"smiles": "CCOC(=O)c1nn(-c2ccccc2C)c2nc(CC(C)C)c(C#N)c(=O)n12", "z-score": 1.04}
{"smiles": "O=C(CSc1nccc(=O)[nH]1)Nc1ccc(S(=O)(=O)N2CCOCC2)cc1", "z-score": 0.000588}
{"smiles": "c1ccc(CNC2=NCCCC2)cc1", "z-score": -0.319}
{"smiles": "CCOC(=O)C(CCCCCOc1ccc([N+](=O)[O-])cc1)C(=O)OCC", "z-score": -0.105}
{"smiles": "CC(C)(C)c1ccc(C2(C)NC(=O)N(CC(=O)Nc3ccc4c(c3)OCO4)C2=O)cc1", "note": "(configuration not stated)", "z-score": 0.00336}
{"smiles": "Cc1ccc(C(=O)c2nc3c(n2O)CCCC3)cc1", "z-score": -0.0809}
{"smiles": "CCNc1nc(NCC)n2c(SCc3ccc(F)cc3)nnc2n1", "z-score": -1.11}
{"smiles": "COc1ccc(NS(=O)(=O)c2cc(N/C(=N\\S(=O)(=O)c3ccccc3)c3ccc(F)cc3)ccc2Cl)cc1", "z-score": 0.166}
{"smiles": "CCCCC(c1nnnn1C1CCCC1)N1CCN(C2CCCC2)CC1", "note": "(configuration not stated)", "z-score": 0.472}
{"smiles": "COc1ccc2sc(NC(C)=O)nc2c1", "z-score": -1.08}
{"smiles": "COc1ccccc1-c1ccc(Nc2cccc(C(C)=O)c2)nn1", "z-score": -0.138}
{"smiles": "CC(C)(C)NS(=O)(=O)c1ccc(NS(C)(=O)=O)cc1", "z-score": -0.0947}
{"smiles": "CC(C)C(NS(=O)(=O)c1cccc2nsnc12)C(=O)NCCC1=CCCCC1", "note": "(configuration not stated)", "z-score": 1.55}
{"smiles": "Cn1nc(-c2ccc(N3CCOCC3)c(NC(=O)COc3ccccc3)c2)c2ccccc2c1=O", "z-score": "active: -3.93"}
{"smiles": "COc1ccc(N2C(=O)CSC23CCCCC3)cc1", "z-score": 0.448}
{"smiles": "CCS(=O)(=O)N1CCC(C(=O)NCCc2ccccc2)CC1", "z-score": -0.0762}
{"smiles": "c1ccc(Cn2nnnc2C(c2ccccn2)N2CCOCC2)cc1", "note": "(configuration not stated)", "z-score": 0.358}
{"smiles": "C=C(C)CSc1nc2ncccc2[nH]1", "z-score": 0.0757}
{"smiles": "COc1ccc(CCN(Cc2cccs2)S(=O)(=O)c2ccc(S(=O)(=O)N(C)C3CCCCC3)cc2)cc1OC", "z-score": -0.219}
{"smiles": "O=C(Nc1cccc2ccccc12)N1CCN(Cc2ccc3c(c2)OCO3)CC1", "z-score": -0.297}
{"smiles": "CC(C)C(NS(=O)(=O)c1ccc2c3c(cccc13)C(=O)N2)C(=O)O", "note": "(configuration not stated)", "z-score": 0.192}
{"smiles": "O=[N+]([O-])c1cccc(/C=N/Nc2nccnc2Cl)c1", "z-score": -0.061}
{"smiles": "Clc1ccccc1CSc1nnc(-c2cccnc2)n1Cc1ccco1", "z-score": -0.171}
{"smiles": "Cc1cc(N2CC(C(=O)O)CC2=O)ccc1Br", "note": "(configuration not stated)", "z-score": -0.172}
{"smiles": "CC(C)(C)C(=O)CSc1nc2ncc(Br)cc2[nH]1", "z-score": -0.301}
{"smiles": "Fc1ccccc1NC(=S)N1CCN(C/C=C/c2ccccc2)CC1", "z-score": -0.629}
{"smiles": "O=C(NCC1CCCO1)C1CC(c2ccccc2Cl)=NO1", "note": "(configuration not stated)", "z-score": -0.0231}
{"smiles": "CCCC1(CCC)NC(=O)NC1=O", "z-score": 0.0587}
{"smiles": "COc1cc(C(=O)Nc2ccc3c(c2)Cc2ccccc2-3)cc(OC)c1OC", "z-score": -0.0975}
{"smiles": "O=C(NCC(c1cccnc1)N1CCN(c2ccccc2F)CC1)OCc1ccccc1", "note": "(configuration not stated)", "z-score": -0.468}
{"smiles": "CC(C(=O)Nc1sc2c(c1C#N)CCCCC2)N1C(=O)c2ccccc2C1=O", "note": "(configuration not stated)", "z-score": 0.126}
{"smiles": "Cc1ccc(-c2nc(CSCC(=O)N3CCN(C(=O)c4ccco4)CC3)c(C)o2)cc1", "z-score": -0.691}
{"smiles": "Cc1ccc(OCC(=O)Nc2cccc(O)c2)cc1C", "z-score": 0.18}
{"smiles": "c1ccc2[nH]c(SCc3cn4cccnc4n3)nc2c1", "z-score": -0.0437}
{"smiles": "CCN(CC)S(=O)(=O)c1ccc(C(=O)NCc2ccc3c(c2)cc(C)n3C)cc1", "z-score": -0.388}
{"smiles": "O=C(Cc1ccc(S(=O)(=O)N2CCOCC2)s1)NCCC(c1ccccc1)c1ccccc1", "z-score": -0.555}
{"smiles": "COc1ccc(NC(=O)C2CCCN(S(=O)(=O)c3cccs3)C2)cc1OC", "note": "(configuration not stated)", "z-score": -0.257}
{"smiles": "CCCC(C(=O)NCc1ccco1)N(C(=O)CNS(=O)(=O)c1ccccc1)C1CCCC1", "note": "(configuration not stated)", "z-score": -1.28}
{"smiles": "COc1ccc(NC(=O)c2ccco2)c(NC(=O)Cc2cccs2)c1", "z-score": 0.162}
